{"source": "the supplement of paper PMC8728848", "binders": {"B1": {"name": "FimA-N3 (Actinomyces oris) (protein)", "chain": "MHHHHHHSSGVDLGTENLYFQSNAGLQGAQFQLYKAKNAYANTCSNEKEGAPIAINGQTTLTTDAQGAIDIKGLFISDSIDGADRDNQVNAMERCYVLVETKAPAGYVLPAGNGAATPVKVKAGEETTDN"}}, "test_in_all_cases": "glycan array binding signal (z-score within array); higher = stronger binding", "conditions_in_all_cases": "glycan notation: IUPAC condensed, linker removed", "key": {"[1]": {"target": "Gal(b1-4)GlcNAc(b1-2)[Gal(b1-4)GlcNAc(b1-6)]Man(a1-6)[GlcNAc(b1-4)][Gal(b1-4)GlcNAc(b1-2)Man(a1-3)]Man(b1-4)GlcNAc(b1-4)GlcNAc", "method_in_brief": "(§1)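 Arrays were curated from the Consortium for Functional Glycomics database, 3228 in total, and kept only where the protein sequence was available. Binding is expressed as a within-array Z-score. This score was averaged across arrays of the same protein sequence at different concentrations or buffers and across linkers, and negative values can be read as non-binding.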"}, "[2]": {"target": "Gal(b1-4)GlcNAc(b1-2)[Gal(b1-4)GlcNAc(b1-6)]Man(a1-6)[GlcNAc(b1-4)][Gal(b1-4)GlcNAc(b1-2)[Gal(b1-4)GlcNAc(b1-4)]Man(a1-3)]Man(b1-4)GlcNAc(b1-4)[Fuc(a1-6)]GlcNAc", "method_in_brief": "as §1"}, "[3]": {"target": "Gal(b1-4)GlcNAc(b1-3)Gal(b1-3)GalNAc", "method_in_brief": "as §1"}, "[4]": {"target": "Gal(b1-4)GlcNAc(b1-3)Gal(b1-3)GlcNAc", "method_in_brief": "as §1"}, "[5]": {"target": "Gal(b1-4)GlcNAc(b1-3)Gal(b1-4)Glc", "method_in_brief": "as §1"}, "[6]": {"target": "Gal(b1-4)GlcNAc(b1-3)Gal(b1-4)GlcNAc", "method_in_brief": "as §1"}, "[7]": {"target": "Gal(b1-4)GlcNAc(b1-3)Gal(b1-4)GlcNAc(b1-2)Man(a1-3)[Gal(b1-4)GlcNAc(b1-3)Gal(b1-4)GlcNAc(b1-2)Man(a1-6)]Man(b1-4)GlcNAc(b1-4)GlcNAc", "method_in_brief": "as §1"}, "[8]": {"target": "Gal(b1-4)GlcNAc(b1-3)Gal(b1-4)GlcNAc(b1-2)Man(a1-3)[Gal(b1-4)GlcNAc(b1-3)Gal(b1-4)GlcNAc(b1-2)Man(a1-6)]Man(b1-4)GlcNAc(b1-4)[Fuc(a1-6)]GlcNAc", "method_in_brief": "as §1"}, "[9]": {"target": "Gal(b1-4)GlcNAc(b1-3)Gal(b1-4)GlcNAc(b1-2)[Gal(b1-4)GlcNAc(b1-3)Gal(b1-4)GlcNAc(b1-6)]Man(a1-6)[Gal(b1-4)GlcNAc(b1-3)Gal(b1-4)GlcNAc(b1-2)Man(a1-3)]Man(b1-4)GlcNAc(b1-4)GlcNAc", "method_in_brief": "as §1"}, "[10]": {"target": "Gal(b1-4)GlcNAc(b1-3)Gal(b1-4)GlcNAc(b1-2)[Gal(b1-4)GlcNAc(b1-3)Gal(b1-4)GlcNAc(b1-6)]Man(a1-6)[Gal(b1-4)GlcNAc(b1-3)Gal(b1-4)GlcNAc(b1-2)Man(a1-3)]Man(b1-4)GlcNAc(b1-4)[Fuc(a1-6)]GlcNAc", "method_in_brief": "as §1"}, "[11]": {"target": "Gal(b1-4)GlcNAc(b1-3)Gal(b1-4)GlcNAc(b1-3)Gal(b1-4)GlcNAc", "method_in_brief": "as §1"}, "[12]": {"target": "Gal(b1-4)GlcNAc(b1-3)Gal(b1-4)GlcNAc(b1-3)Gal(b1-4)GlcNAc(b1-2)Man(a1-3)[Gal(b1-4)GlcNAc(b1-3)Gal(b1-4)GlcNAc(b1-3)Gal(b1-4)GlcNAc(b1-2)Man(a1-6)]Man(b1-4)GlcNAc(b1-4)GlcNAc", "method_in_brief": "as §1"}, "[13]": {"target": "Gal(b1-4)GlcNAc(b1-3)Gal(b1-4)GlcNAc(b1-3)Gal(b1-4)GlcNAc(b1-2)Man(a1-3)[Gal(b1-4)GlcNAc(b1-3)Gal(b1-4)GlcNAc(b1-3)Gal(b1-4)GlcNAc(b1-2)Man(a1-6)]Man(b1-4)GlcNAc(b1-4)[Fuc(a1-6)]GlcNAc", "method_in_brief": "as §1"}, "[14]": {"target": "Gal(b1-4)GlcNAc(b1-3)Gal(b1-4)GlcNAc(b1-3)Gal(b1-4)GlcNAc(b1-2)[Gal(b1-4)GlcNAc(b1-3)Gal(b1-4)GlcNAc(b1-3)Gal(b1-4)GlcNAc(b1-6)]Man(a1-6)[Gal(b1-4)GlcNAc(b1-3)Gal(b1-4)GlcNAc(b1-3)Gal(b1-4)GlcNAc(b1-2)Man(a1-3)]Man(b1-4)GlcNAc(b1-4)[Fuc(a1-6)]GlcNAc", "method_in_brief": "as §1"}, "[15]": {"target": "Gal(b1-4)GlcNAc(b1-3)Gal(b1-4)GlcNAc(b1-3)Gal(b1-4)GlcNAc(b1-3)Gal(b1-4)GlcNAc(b1-2)Man(a1-3)[Gal(b1-4)GlcNAc(b1-3)Gal(b1-4)GlcNAc(b1-3)Gal(b1-4)GlcNAc(b1-3)Gal(b1-4)GlcNAc(b1-2)Man(a1-6)]Man(b1-4)GlcNAc(b1-4)GlcNAc", "method_in_brief": "as §1"}, "[16]": {"target": "Gal(b1-4)GlcNAc(b1-3)Gal(b1-4)GlcNAc(b1-3)Gal(b1-4)GlcNAc(b1-3)Gal(b1-4)GlcNAc(b1-2)Man(a1-3)[Gal(b1-4)GlcNAc(b1-3)Gal(b1-4)GlcNAc(b1-3)Gal(b1-4)GlcNAc(b1-3)Gal(b1-4)GlcNAc(b1-2)Man(a1-6)]Man(b1-4)GlcNAc(b1-4)[Fuc(a1-6)]GlcNAc", "method_in_brief": "as §1"}, "[17]": {"target": "Gal(b1-4)GlcNAc(b1-3)Gal(b1-4)GlcNAc(b1-3)Gal(b1-4)GlcNAc(b1-3)Gal(b1-4)GlcNAc(b1-2)[Gal(b1-4)GlcNAc(b1-3)Gal(b1-4)GlcNAc(b1-3)Gal(b1-4)GlcNAc(b1-3)Gal(b1-4)GlcNAc(b1-6)]Man(a1-6)[Gal(b1-4)GlcNAc(b1-3)Gal(b1-4)GlcNAc(b1-3)Gal(b1-4)GlcNAc(b1-3)Gal(b1-4)GlcNAc(b1-2)Man(a1-3)]Man(b1-4)GlcNAc(b1-4)[Fuc(a1-6)]GlcNAc", "method_in_brief": "as §1"}, "[18]": {"target": "Gal(b1-4)GlcNAc(b1-3)Gal(b1-4)GlcNAc(b1-3)Gal(b1-4)GlcNAc(b1-3)Gal(b1-4)GlcNAc(b1-3)Gal(b1-4)GlcNAc(b1-2)Man(a1-3)[Gal(b1-4)GlcNAc(b1-3)Gal(b1-4)GlcNAc(b1-3)Gal(b1-4)GlcNAc(b1-3)Gal(b1-4)GlcNAc(b1-3)Gal(b1-4)GlcNAc(b1-2)Man(a1-6)]Man(b1-4)GlcNAc(b1-4)GlcNAc", "method_in_brief": "as §1"}, "[19]": {"target": "Gal(b1-4)GlcNAc(b1-3)Gal(b1-4)GlcNAc(b1-3)Gal(b1-4)GlcNAc(b1-3)Gal(b1-4)GlcNAc(b1-3)Gal(b1-4)GlcNAc(b1-2)Man(a1-3)[Gal(b1-4)GlcNAc(b1-3)Gal(b1-4)GlcNAc(b1-3)Gal(b1-4)GlcNAc(b1-3)Gal(b1-4)GlcNAc(b1-3)Gal(b1-4)GlcNAc(b1-2)Man(a1-6)]Man(b1-4)GlcNAc(b1-4)[Fuc(a1-6)]GlcNAc", "method_in_brief": "as §1"}, "[20]": {"target": "Gal(b1-4)GlcNAc(b1-3)Gal(b1-4)GlcNAc(b1-3)Gal(b1-4)GlcNAc(b1-3)Gal(b1-4)GlcNAc(b1-3)Gal(b1-4)GlcNAc(b1-2)[Gal(b1-4)GlcNAc(b1-3)Gal(b1-4)GlcNAc(b1-3)Gal(b1-4)GlcNAc(b1-3)Gal(b1-4)GlcNAc(b1-3)Gal(b1-4)GlcNAc(b1-6)]Man(a1-6)[Gal(b1-4)GlcNAc(b1-3)Gal(b1-4)GlcNAc(b1-3)Gal(b1-4)GlcNAc(b1-3)Gal(b1-4)GlcNAc(b1-3)Gal(b1-4)GlcNAc(b1-2)Man(a1-3)]Man(b1-4)GlcNAc(b1-4)[Fuc(a1-6)]GlcNAc", "method_in_brief": "as §1"}, "[21]": {"target": "Gal(b1-4)GlcNAc(b1-3)Gal(b1-4)GlcNAc(b1-3)Gal(b1-4)GlcNAc(b1-3)Gal(b1-4)GlcNAc(b1-3)Gal(b1-4)GlcNAc(b1-3)Gal(b1-4)GlcNAc(b1-2)Man(a1-3)[Gal(b1-4)GlcNAc(b1-3)Gal(b1-4)GlcNAc(b1-3)Gal(b1-4)GlcNAc(b1-3)Gal(b1-4)GlcNAc(b1-3)Gal(b1-4)GlcNAc(b1-3)Gal(b1-4)GlcNAc(b1-2)Man(a1-6)]Man(b1-4)GlcNAc(b1-4)GlcNAc", "method_in_brief": "as §1"}, "[22]": {"target": "Gal(b1-4)GlcNAc(b1-3)Gal(b1-4)GlcNAc(b1-3)GalNAc", "method_in_brief": "as §1"}, "[23]": {"target": "Gal(b1-4)GlcNAc(b1-3)Gal(b1-4)GlcNAc(b1-3)[Gal(b1-4)GlcNAc(b1-3)Gal(b1-4)GlcNAc(b1-6)]GalNAc", "method_in_brief": "as §1"}}, "note": "Some of the results follow.", "data": [{"binder": "B1", "values": [{"measurement": "glycan array binding signal (z-score)", "setting": "[1]", "value": -0.506}, {"measurement": "glycan array binding signal (z-score)", "setting": "[2]", "value": -0.61}, {"measurement": "glycan array binding signal (z-score)", "setting": "[3]", "value": 0.174}, {"measurement": "glycan array binding signal (z-score)", "setting": "[4]", "value": -0.785}, {"measurement": "glycan array binding signal (z-score)", "setting": "[5]", "value": -0.274}, {"measurement": "glycan array binding signal (z-score)", "setting": "[6]", "value": -0.175}, {"measurement": "glycan array binding signal (z-score)", "setting": "[7]", "value": -0.151}, {"measurement": "glycan array binding signal (z-score)", "setting": "[8]", "value": -0.021}, {"measurement": "glycan array binding signal (z-score)", "setting": "[9]", "value": 0.358}, {"measurement": "glycan array binding signal (z-score)", "setting": "[10]", "value": 0.216}, {"measurement": "glycan array binding signal (z-score)", "setting": "[11]", "value": -0.32}, {"measurement": "glycan array binding signal (z-score)", "setting": "[12]", "value": 0.226}, {"measurement": "glycan array binding signal (z-score)", "setting": "[13]", "value": -0.102}, {"measurement": "glycan array binding signal (z-score)", "setting": "[14]", "value": 1.19}, {"measurement": "glycan array binding signal (z-score)", "setting": "[15]", "value": 0.744}, {"measurement": "glycan array binding signal (z-score)", "setting": "[16]", "value": 2.57}, {"measurement": "glycan array binding signal (z-score)", "setting": "[17]", "value": 0.782}, {"measurement": "glycan array binding signal (z-score)", "setting": "[18]", "value": 0.111}, {"measurement": "glycan array binding signal (z-score)", "setting": "[19]", "value": -0.121}, {"measurement": "glycan array binding signal (z-score)", "setting": "[20]", "value": 4.26}, {"measurement": "glycan array binding signal (z-score)", "setting": "[21]", "value": -0.149}, {"measurement": "glycan array binding signal (z-score)", "setting": "[22]", "value": -0.532}, {"measurement": "glycan array binding signal (z-score)", "setting": "[23]", "value": -0.265}]}]}
